According to patent publication US10730895B2, “Carbidopa prodrug” (AbbVie Inc., priority 2014, dated 2020):
Where two headings read alike, the source gives them in different places.

Key:
[1] = 1-day stability study of individual prodrugs in aqueous solution; type: physicochemical; settings: aqueous solution 80 μg/mL, ambient storage, pH 7.0
Experimental: The L-dopa phosphate prodrugs and the carbidopa phosphate prodrugs were evaluated in a stability study.

[2] = Solubility study in water by visual assessment; type: physicochemical; settings: thermodynamic from solid, water, ambient, read-out: Solubility
Experimental: The L-dopa phosphate prodrugs and the carbidopa phosphate prodrugs were evaluated in a solubility study. The solubility values of the phosphate prodrugs in water under ambient conditions were determined by visual assessment. Table 13-A reports the results of the study, including the measured values for L-dopa and carbidopa.

[3] = In vitro bioconversion study, blood (human); type: in vitro ADME; settings: for half-life at 2.5 ug/mL: prodrug 2.5 ug/mL, 37° C.
[4] = In vitro bioconversion study, blood (rat); type: in vitro ADME
[5] = 7-day stability study, 4′-monophosphate combination solution; type: physicochemical; settings: combined solution L-dopa 4′-monophosphate 200 mg/mL + carbidopa 4′-monophosphate 50 mg/mL, pH 7.4, room temperature
Experimental: In addition, a solution combining the L-dopa 4′-monophosphate at 200 mg/mL and carbidopa 4′-monophosphate at 50 mg/mL was monitored over 7 days at room temperature. These samples were prepared with and without purging with nitrogen to remove oxygen.

[6] = In vitro bioconversion study, blood (mini-pig); type: in vitro ADME

Row | L-Dopa or Carbidopa Formation [4] | half-life at 2.5 ug/mL ([4]; prodrug 2.5 ug/mL, 37° C.) [min] | % Remaining After 7 Days ([5]; Nitrogen Purged) [%] | % Remaining After 7 Days ([5]; Non-Purged) [%] | L-Dopa or Carbidopa Formation [6] | half-life at 2.5 ug/mL ([6]; minipig, prodrug 2.5 ug/mL, 37° C.) [min] | solubility ([2]; pH 7.4, L-dopa 4′-phosphate crystalline, carbidopa 4′-phosphate amorphous) [mg/mL] | L-Dopa or Carbidopa Formation [3] | solubility ([2]; pH 4-7, crystalline (carbidopa: crystalline monohydrate)) [mg/mL] | Compound | % Remaining After One Day [1] [%] | solubility ([2]; pH 7.0, crystalline) [mg/mL] | half-life at 2.5 ug/mL [3] [min]
1 |  |  |  |  |  |  |  |  |  | N[C@@H](Cc1ccc(O)c(OP(=O)(O)O)c1)C(=O)O [L-dopa 3′-phosphate] | >99 | > 161 | 28
2 | Yes | 15 | >99 | >99 | Yes | 8.8 | > 400 | Yes |  | N[C@@H](Cc1ccc(OP(=O)(O)O)c(O)c1)C(=O)O [L-dopa 4′-phosphate, (S)-2-amino-3-(3-hydroxy-4-(phosphonooxy)phenyl)propanoic acid] | >99 |  | 30.9
3 |  |  |  |  |  |  |  |  | < 6 | N[C@@H](Cc1ccc(O)c(O)c1)C(=O)O [L-dopa, L-3,4-dihydroxyphenylalanine, reference compound] |  |  | 
